Laboratory results reported in patent US10273233B2, “Inhibitors of influenza viruses replication” (Vertex Pharmaceuticals Incorporated, priority 2015, dated 2019).

What was measured:
[1] = Text: For the HCl salt, a 30% PEG300/0.5% MC vehicle was used to prepare the suspension.
Remark: listed apart in the source

In the case of `CC(C)(C)[C@@H](CC(=O)O)Nc1nc(-c2c[nH]c3ncc(F)cc23)ncc1F` [Hydrate 3 of Compound (1)], the “physical form stability in FaSSGF” value [1] is reported as “remained physically stable”, the “physical form stability in FaSSIF” value [1] is reported as “remained physically stable throughout the in vitro dissolution study” and the “chemical stability in solution” value (5 days, 0.15 mg/ml) is reported as “chemically stable over a pH range of 3 to 9”. For the same compound, the “chemical stability in suspension” value (5 days, 2 mg/ml) was “chemically stable over a pH range of 4 to 9” and the “change in % area” value (suspension 2 mg/ml at 40° C. for 5 days, pH 3, no new impurities) was 0.05 % area.
For `CC(C)(C)[C@@H](CC(=O)O)Nc1nc(-c2c[nH]c3ncc(F)cc23)ncc1F` [H2SO4 Salt], the “physical form stability in FaSSGF” value [1] was “remained physically stable”, the “physical form stability in FaSSIF” value [1] was “readily converted to Hydrate 2 of Compound (1)” and the “lower concentration levels compared to Hydrate 3 of Compound (1)” value ([1]; FaSSGF) was 10 fold.
In the case of `CC(C)(C)[C@@H](CC(=O)O)Nc1nc(-c2c[nH]c3ncc(F)cc23)ncc1F` [HCl Salt], the “physical form stability in FaSSGF” value [1] is reported as “converted to an amorphous material”, the “physical form stability in FaSSIF” value [1] is reported as “readily converted to Hydrate 2 of Compound (1)” and the “physical stability in suspension vehicle” value [1] is reported as “physically unstable”. The “increase in concentrations compared to Hydrate 3 of Compound (1)” value ([1]; FaSSGF) was 8 fold.

Counter-ions that a name gives are not always drawn.
